# Test results taken from the supplement of paper PMC11876631.
# Changes are numbered by the printed parent chain. Numbers in names are those of the source. ± gives the standard deviation of the averaged measurements. Laboratory Escherichia coli strains with one amino-acid change in an essential protein, pooled on minimal glucose agar with carbenicillin or gentamicin at twice the control MIC (plus kanamycin and chloramphenicol for the plasmids), 48 h. Fold change of barcode share against drug-free plates; higher = less susceptible. Active = above 20 in both replicates (the paper's putatively resistant). '<' = one read or none on drug, '>' = one read or none on a drug-free plate. Shares are relative, so most strains fall below 1 when a few take over. Listed are strains with at least 15 reads on both drug-free plates, and hits; most hits rest on fewer reference reads. Replicate rank correlation about 0.5. Edits are read from barcodes.
# B1: argG L45A (protein)
# chain: MTTILKHLPVGQRIGIAFSGGLDTSAALLWMRQKGAVPYAYTANAGQPDEEDYDAIPRRAMEYGAENARLIDCRKQLVAEGIAAIQCGAFHNTTGGLTYFNTTPLGRAVTGTMLVAAMKEDGVNIWGDGSTYKGNDIERFYRYGLLTNAELQIYKPWLDTDFIDELGGRHEMSEFMIACGFDYKMSVEKAYSTDSNMLGATHEAKDLEYLNSSVKIVNPIMGVKFWDESVKIPAEEVTVRFEQGHPVALNGKTFSDDVEMMLEANRIGGRHGLGMSDQIENRIIEAKSRGIYEAPGMALLHIAYERLLTGIHNEDTIEQYHAHGRQLGRLLYQGRWFDSQALMLRDSLQRWVASQITGEVTLELRRGNDYSILNTVSENLTYKPERLTMEKGDSVFSPDDRIGQLTMRNLDITDTREKLFGYAKTGLLSSSAASGVPQVENLENKGQ
# B2: hemD F57A (protein)
# chain: MSILVTRPSPAGEELVSRLRTLGQVAWHFPLIEFSPGQQLPQLADQLAALGESDLLAALSQHAVAFAQSQLHQQDRKWPRLPDYFAIGRTTALALHTVSGQKILYPQDREISEVLLQLPELQNIAGKRALILRGNGGRELIGDTLTARGAEVTFCECYQRCAIHYDGAEEAMRWQAREVTMVVVTSGEMLQQLWSLIPQWYREHWLLHCRLLVVSERLAKLARELGWQDIKVADNADNDALLRALQ
# B3: hemD V182Q (protein)
# chain: B2 chain with A57F, V182Q
# B4: hemD V182W (protein)
# chain: B2 chain with A57F, V182W
# B5: hemD V182A (protein)
# chain: B2 chain with A57F, V182A
# B6: hemC V109A (protein)
# chain: MLDNVLRIATRQSPLALWQAHYVKDKLMASHPGLVVELVPMVTRGDVILDTPLAKVGGKGLFVKELEVALLENRADIAVHSMKDVPVEFPQGLGLVTICEREDPRDAFASNNYDSLDALPAGSIVGTSSLRRQCQLAERRPDLIIRSLRGNVGTRLSKLDNGEYDAIILAVAGLKRLGLESRIRAALPPEISLPAVGQGAVGIECRLDDSRTRELLAALNHHETALRVTAERAMNTRLEGGCQVPIGSYAELIDGEIWLRALVGAPDGSQIIRGERRGAPQDAEQMGISLAEELLNNGAREILAEVYNGDAPA
# B7: hemC V196A (protein)
# chain: B6 chain with A109V, V196A
# B8: hemC V196P (protein)
# chain: B6 chain with A109V, V196P
# B9: hemC L174A (protein)
# chain: B6 chain with A109V, L174A
# B10: hemC L193A (protein)
# chain: B6 chain with A109V, L193A
# B11: hemC V196Q (protein)
# chain: B6 chain with A109V, V196Q
# B12: hemC V196W (protein)
# chain: B6 chain with A109V, V196W
# B13: hemC L193Q (protein)
# chain: B6 chain with A109V, L193Q
# B14: hemC L174P (protein)
# chain: B6 chain with A109V, L174P
# B15: hemC L174Q (protein)
# chain: B6 chain with A109V, L174Q
# Target: Escherichia coli (laboratory strain)
# Assay: barcode share on antibiotic plates over drug-free plates; higher = less susceptible
# Settings: antibiotic: carbenicillin; 2× MIC (3.1 µg/mL)
# Method: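 A pool of E. coli strains, each edited to carry one amino-acid change in an essential protein, was grown for 48 h on minimal glucose agar with or without antibiotic; strain barcodes were sequenced; mean of two replicates.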
row,Protein,fold change of barcode share
1,B1,0.422 ± 0.097
2,B2,0.131 ± 0.012
3,B3,0.414 ± 0.076
4,B4,0.5 ± 0.0083
5,B5,0.498 ± 0.1
6,B6,0.552 ± 0.027
7,B7,0.333 ± 0.014
8,B8,0.224 ± 0.063
9,B9,0.315 ± 0.029
10,B10,> 53.1 [active]
11,B11,0.366 ± 0.0074
12,B12,0.338 ± 0.015
13,B13,3.37 ± 0.67
14,B14,0.282 ± 0.082
15,B15,0.57 ± 0.25

# Same assay, conditions: antibiotic: gentamicin; 2× MIC (MIC 0.45 µg/mL)
row,Protein,fold change of barcode share
1,B1,< 0.00718
2,B2,< 0.0106
3,B3,0.0312 ± 0.007
4,B4,0.00295 ± 0.00047
5,B5,0.0161 ± 0.0063
6,B6,< 0.0227
7,B7,0.00437 ± 0.004
8,B8,< 0.00256
9,B9,0.00806 ± 0.0064
10,B11,0.00386 ± 0.0031
11,B12,< 0.00341
12,B13,0.0927 ± 0.079
13,B14,0.0856 ± 0.11
14,B15,0.00839 ± 0.0055
